From PubChem BioAssay AID1508623 (National Center for Advancing Translational Sciences (NCATS), 2021)
In all, about 48,000 compounds went through this assay and about 450 (0.94%) were called active. Roughly 19% stayed inconclusive and do not appear here. Calls follow the shape of the dose curve; as a rule, active = well fitted inhibition curve with a large enough effect; inconclusive = small, poorly fitted or top-dose-only effect; inactive = no such curve, though single readings can be large or run the other way. The list shows a part of the results.

Assay: Primary qHTS for Identification of Small Molecule Inhibitors of Huntingtin Promoter Activity; also: nearly all actives have a fitted effect of over 50% in size
Conditions: HEK293 HTT promoter firefly luciferase reporter (activity 0% = vehicle and -100% = no light), 24 h; series mostly up to 57.5 µM; activity change, negative = inhibition: at the top concentration
Method in brief: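 HEK293 Fluc reporter, 2,500 cells/well, 24 h pre-culture; cpds up to 57.5 uM final, 24 h 37 degrees C; Dual-Glo, 10 min RT; normalized vehicle = 0%, zero RLU = -100%.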
Potency is read from the fitted curve at half-maximal effect.

Activity change, negative = inhibition, inactive:
Nc1c(C(=O)Nc2ccc(Br)cc2)sc2nc(-c3ccncc3)ccc12 -2.72%, O=C(CNC(=O)c1ccc(Cl)cc1)OCc1cc(=O)n2nc(C3CCCCC3)sc2n1 -17.1%, COc1ccc(S(=O)(=O)N(CC(=O)Nc2cccnc2)c2ccc(C)cc2)cc1OC 2.38%, COc1cc2c(=O)n(CCC(=O)NCC3CCCO3)c(=O)n(CC(=O)Nc3ccc(F)cc3)c2cc1OC (stereo unspecified) -19.2%, Cc1ccc(O)c(NC(=O)CCS(=O)(=O)c2nc(-c3ccc4c(c3)OCO4)cc(C(F)(F)F)n2)c1 22.7%, O=c1[nH]c(=O)n([C@H]2C[C@H](O)[C@@H](CO)O2)cc1I 14.8%, Cc1ccc(-n2nnc(-c3nsc(NC(=O)c4ccc(C)c(C)c4)n3)c2C)cc1 -29.6%, CCc1ccc(CNC(=O)CCn2c(=O)c3cccn3c3ccc(F)cc32)cc1 2.72%, CCOc1ccccc1CNC(=O)c1cc(-c2ccc(C)c(C)c2)nc2ccccc12 -11.7%, CCOc1ccccc1NC(=O)COc1ccc(S(=O)(=O)NC2CCCCC2)cc1 -19.9%, O=C(Nc1ccc(F)c(F)c1)C1CCCN1S(=O)(=O)c1cccc2nsnc12 (stereo unspecified) -25.8%, CN1CCN(c2ccc3nc(-c4c(N)c5c(F)cccc5[nH]c4=O)[nH]c3c2)CC1 -1.92%, Cc1oc2ncn(C)c(=O)c2c1C(=O)NCCCN(Cc1ccccc1)C(C)C 5.04%, CCn1c(=O)c2sccc2n2c(CCC(=O)Nc3ccc(OC)c(Cl)c3)nnc12 -1.31%, Cc1ccc(C(=O)Nc2nc(-c3ccccc3)ns2)cc1 0.665%, CC(C)Oc1ccc(CNC(=O)C2CCN(c3nc4ccccc4n(C)c3=O)CC2)cc1 6.92%, CCc1ccc(C2NC(=O)c3[nH]nc(-c4cccc(OC)c4)c32)cc1 (stereo unspecified) -4.25%, CS(=O)(=O)N1CCc2cc(C(=O)Nc3cccc(F)c3)ccc21 32.4%, COc1ccccc1CC(=O)Nc1ccc2nc(N3CCC(C)CC3)cc(C)c2c1 -0.501%, Cc1ccc(C)c(Cn2c3ccccc3c3cnn(CC(=O)NC(C)c4ccccc4)c(=O)c32)c1 (stereo unspecified) 5.86%, CCOC(=O)c1ccc(-c2ccc(/C=C(\C#N)C(=O)Nc3ccc(C)cc3OC)o2)cc1 -9.73%, CCCNC(=O)CN1CCN(c2ncc(NC(=O)c3ccc(Cl)cc3)cc2C(=O)O)CC1 -10.9%, N[C@@H](COP(=O)(O)O)C(=O)O 1.19% [at 25.2 µM], CCCOc1ccccc1C1Oc2nc(SC)nnc2-c2ccccc2N1C(C)=O (stereo unspecified) -25.6%, CCCCN1C(=O)C(O)(c2c(C)[nH]c3ccccc23)c2ccccc21 (stereo unspecified) -30.5%

Potency, active:
COc1cccc2sc(N3CCN(C(=O)CCS(=O)(=O)c4ccc(F)cc4)CC3)nc12 22.4 µM
